Test results from PMC4336329 (PLoS ONE, 2015).
About 14,000 (4.5%) of roughly 310,000 compounds showed an effect of 50% or more. The effect is printed as a negative number. Some of the results follow.

Target: human ether-à-go-go-related gene (hERG) potassium channel (human, UniProt Q12809)
Test: primary screen, population patch clamp on CHO cells stably expressing hERG
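Note: peak tail current of the secondary pulse compared with the same well before compound.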

human ether-à-go-go-related gene (hERG) potassium channel, sequence (Q12809 whole entry, looked up): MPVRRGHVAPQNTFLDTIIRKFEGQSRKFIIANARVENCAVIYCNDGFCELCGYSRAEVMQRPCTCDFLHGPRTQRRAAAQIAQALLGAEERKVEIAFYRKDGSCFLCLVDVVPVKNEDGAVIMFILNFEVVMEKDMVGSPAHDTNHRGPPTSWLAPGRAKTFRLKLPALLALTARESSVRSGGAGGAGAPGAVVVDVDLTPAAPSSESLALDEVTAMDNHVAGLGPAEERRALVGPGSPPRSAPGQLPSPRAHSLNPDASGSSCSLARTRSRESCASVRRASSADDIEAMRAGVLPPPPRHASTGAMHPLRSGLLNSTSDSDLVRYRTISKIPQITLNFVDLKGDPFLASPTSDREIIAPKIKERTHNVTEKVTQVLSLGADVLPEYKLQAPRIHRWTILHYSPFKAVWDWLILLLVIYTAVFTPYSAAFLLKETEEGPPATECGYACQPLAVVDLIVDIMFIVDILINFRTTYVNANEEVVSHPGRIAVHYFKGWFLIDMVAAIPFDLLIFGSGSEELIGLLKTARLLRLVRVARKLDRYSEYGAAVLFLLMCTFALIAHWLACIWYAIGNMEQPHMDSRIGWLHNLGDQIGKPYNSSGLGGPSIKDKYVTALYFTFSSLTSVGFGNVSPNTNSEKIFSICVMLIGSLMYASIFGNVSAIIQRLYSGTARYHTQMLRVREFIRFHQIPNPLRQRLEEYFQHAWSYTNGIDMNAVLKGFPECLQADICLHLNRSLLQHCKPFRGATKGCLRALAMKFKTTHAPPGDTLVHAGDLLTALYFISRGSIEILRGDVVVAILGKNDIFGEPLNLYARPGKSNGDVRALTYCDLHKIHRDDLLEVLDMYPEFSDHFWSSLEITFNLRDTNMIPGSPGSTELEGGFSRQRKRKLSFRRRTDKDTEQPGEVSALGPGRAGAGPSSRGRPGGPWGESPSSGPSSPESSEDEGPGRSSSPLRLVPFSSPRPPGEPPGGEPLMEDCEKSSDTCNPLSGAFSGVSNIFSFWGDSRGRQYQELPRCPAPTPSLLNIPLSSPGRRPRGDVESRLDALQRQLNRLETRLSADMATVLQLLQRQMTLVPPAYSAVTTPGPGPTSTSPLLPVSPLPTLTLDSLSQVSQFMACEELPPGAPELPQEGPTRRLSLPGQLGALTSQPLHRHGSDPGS

SMILES	hERG current change (%, negative = inhibition) at 10uM
Cc1cc(C)cc(OCCCCn2cncn2)c1	1.77%
COc1ccc2nc(C(F)(F)C(F)(F)F)c(C#N)c(N)c2c1	15.9%
Cc1ccc(Cl)cc1N(CC(=O)N1CCOCC1)S(C)(=O)=O	8.23%
Nc1nc(NCCOCCO)nc(NC2CCCCC2)c1[N+](=O)[O-]	-4.02%
OCCC1CN(C2CSCCSC2)CCN1Cc1ccccc1 (stereo not shown)	11.9%
O=[N+]([O-])c1ccc(OCCn2cncn2)cc1	5.29%
O=Cc1cnc(N2CCN(Cc3ccccc3)CC2)s1	-8.97%
COc1ccc(CCNC(=O)C(=O)c2cn(CC(=O)N3CCOCC3)c3ccccc23)cc1	7.24%
CCN(c1ccc(OC)cc1)S(=O)(=O)c1nnc(NC(=O)CC(C)C)s1	-0.0537%
CC1=CC(C)(C)NC(=S)N1c1cccc2cc(S(=O)(=O)O)ccc12	15.6%
COC(=O)c1ccc(C(=O)N(C)C2CCCN(Cc3ccccc3F)C2)nc1 (stereo not shown)	18.6%
Cc1cc(S(=O)(=O)NCC(C)C)ccc1OCC(=O)N1CCN(Cc2ccccc2)CC1	-35.2%
Cc1ccc(C)c(N/C=C(\C#N)c2nc3ccccc3o2)c1	3.92%
CC1CCCCC12NC(=O)N(Cc1cc(=O)n3ccsc3n1)C2=O (stereo not shown)	5.65%
Cc1sc2ncnc(NCc3ccco3)c2c1C	-16.3%
COC(=O)c1ccc(Cn2nc(-c3cc(C)ccc3C)ccc2=O)cc1	-6.58%
O=C(Cn1c2ccccc2c2nc3n(c(=O)c21)CCS3)N1CCCC1	11.5%
Cc1ccc(C(=O)CSc2nnc(COc3cccc4cccnc34)o2)cc1	-20.3%
O=C(Cc1ccccc1)N1CCN(Cc2ccccn2)CC1	-1.55%
Cc1c(C(=O)Nc2cnccn2)oc2ccccc12	-7.71%
O=C(/C(=N/N=C/c1ccc(O)c(O)c1)c1ccccc1)c1ccccc1	3.4%
CN(C(=O)COC(=O)c1cc(=O)[nH]c2ccccc12)c1c(N)n(Cc2ccccc2)c(=O)[nH]c1=O	-7.96%

SMILES	hERG current change (%, negative = inhibition) at 10uM
C/C(=N/NC(=O)c1ccccn1)c1ccco1	11.4%
Cc1ccc(OCCNC(=O)/C=C/c2ccccc2)cc1	-3.75%
CC(=O)c1cccc(CN2CCC(CO)(Cc3ccccc3)CC2)c1	-22.9%
CCN(CC)S(=O)(=O)c1ccc2c(c1)c(=O)c(C(=O)N1CCc3ccccc3C1)cn2C	-30.4%
CC(NC(=O)COC(=O)Cc1ccsc1)c1ccccc1 (stereo not shown)	-4.98%
OC(CNCc1ccco1)Cn1c2ccccc2c2ccccc21 (stereo not shown)	-58.4%
COc1ccc(C(=O)NCC2CCCN2S(=O)(=O)c2cccs2)cc1OC (stereo not shown)	-3.01%
CCOc1ccc(C(=O)NCC(=O)OCc2cc([N+](=O)[O-])cc3c2OCOC3)cc1OCC	-12%
COc1ccccc1CNC(=O)C1CCN(C(=O)N(C)C)CC1	13.7%
Cc1ccc2nsnc2c1S(=O)(=O)N(CCO)Cc1cc2cc3c(cc2[nH]c1=O)OCCO3	9.12%
Cc1cc(NC(=O)COC(=O)c2oc3c(Cl)cccc3c2C)no1	8.03%
CCOC(=O)c1cccc(NC(=O)c2c(N)n(C)c(=O)[nH]c2=O)c1	19.9%
CC(OC(=O)c1cc(=O)[nH]c2ccccc12)C(=O)NC1CCCC1 (stereo not shown)	-7.37%
COc1cccc(NC(=O)CCNS(=O)(=O)c2ccc(Br)s2)c1	-32.6%
O=C(Nc1cc(Br)ccc1O)c1cc(-c2ccco2)on1	13%
O=C(NCc1ccccn1)c1cc(-c2ccccc2)nc2ccccc12	-25.2%
CCCN(CCC)Cc1cc2ccccc2c2c1COC2	-29%
COc1cc(C(=O)OCC(=O)NC2CC2)cc(OC)c1OC	-0.0787%
COc1ccc(CNC(=O)[C@H](C)NC(=O)C2CC(=O)N(c3ccc(OC)cc3)C2)cc1 (stereo partly shown)	1.04%
COC(=O)CNC(c1ccccc1)c1cc(C)ccc1NC(=O)CNC(=O)OCc1ccccc1 (stereo not shown)	-31.4%
CCOC(=O)c1nn(-c2ccc(Cl)cc2)c2nc(CC)c(C#N)c(=O)n12	-0.431%
